In ChEMBL document CHEMBL4888484, “Replenishing the malaria drug discovery pipeline: Screening and hit evaluation of the MMV Hit Generation Library 1 (HGL1) against asexual blood stage Plasmodium falciparum ,using a nano luciferase reporter read-out” (2022):
Hit rate of the full screen: of about 150,000 compounds, about 540 (0.36%) showed an effect of 50% or more. The list shows a part of the results.

System: Plasmodium falciparum
Assay: Primary screen in NF54 nanoGlo assay, in single point, at 2uM, 72h; a lower Z score goes with more inhibition
Assay type: functional, Erythrocyte
Conditions: timepoint 72 hour

Q: Which “% Inhibition” value does the source give for `CCc1csc(N2CCOCC3(CC3)C2)n1` here?
A: 0%

Q: And the Z score?
A: -0.04

Q: What does the source list for `Cc1ccc2nc3n(c2c1)[C@@H](CNC1CCCCC1)COC3`?
A: % Inhibition: 3%; Z score: -0.35

Q: For `CC1CN(C(C)C(=O)O)CC(c2ccsc2)O1` (stereo not given), which “% Inhibition” value is on record?
A: -5%

Q: And the Z score?
A: 0.41

Q: Which results are given for `O=C(Nc1ccnc(C2CCCC2)n1)[C@@H]1CCCO1`?
A: % Inhibition: -1%; Z score: 0.08

Q: `COc1ccc(-c2cn(CCCc3cnn(C)c3)nn2)c(F)c1` was tested. Which “% Inhibition” value did it give?
A: 9%

Q: And the Z score?
A: -1.2

Q: For `CCCCC[C@H](C)NS(=O)(=O)Cc1cc(C)no1`, which “% Inhibition” value is on record?
A: -4%

Q: And the Z score?
A: 0.6

Q: Which “% Inhibition” value does the source give for `CC(C)(C)CS(=O)(=O)NC1CC2CCC1O2` (stereo not given) here?
A: -5%

Q: And the Z score?
A: 0.46

Q: With `NC(=O)N1CC[C@H](NC(=O)c2ccc(C(F)(F)F)c(F)c2)C1` as the compound, how does the “% Inhibition” value read?
A: -32%

Q: What about the Z score of the same compound?
A: 3.72

Q: How did the “% Inhibition” value turn out when `CC(C)C1=NO[C@H](C(=O)NCCN2CCCCC2=O)C1` was run?
A: -15%

Q: What about the Z score of the same compound?
A: 2.35

Q: What does the source list for `Cc1nc2cc(CC(=O)NC3(CO)CCCCC3)ccc2[nH]1`?
A: % Inhibition: -9%; Z score: 1.36

Q: For `O=C(N[C@H]1CC[C@H](Oc2ncccn2)CC1)[C@@H]1Cc2ccccc2CO1`, which “% Inhibition” value is on record?
A: -8%

Q: What about the Z score of the same compound?
A: 1.42

Q: With `CC(C)(C)NCCOCCOc1cc(Cl)ccc1Cl` as the compound, how does the “% Inhibition” value read?
A: 5%

Q: And the Z score?
A: -1.02

Q: `COCC(=O)N[C@@H]1CN(CC2CC2)CC[C@@H]1c1nc(C)no1` was tested. Which “% Inhibition” value did it give?
A: -14%

Q: And the Z score?
A: 1.89

Q: For `O=c1n(Cc2ccon2)nc2ccccn12`, which “% Inhibition” value is on record?
A: -9%

Q: What about the Z score of the same compound?
A: 1.44

Q: For `O=C1c2cccnc2CN1[C@@H]1CCC[C@H]1OCc1ccccc1`, which “% Inhibition” value is on record?
A: -6%

Q: What about the Z score of the same compound?
A: 1.15

Q: Which “% Inhibition” value does the source give for `CC(C)(C)CN(CCCO)C(=O)c1ccc(C#N)cn1` here?
A: -6%

Q: What about the Z score of the same compound?
A: 0.88

Q: Which “% Inhibition” value does the source give for `O=C1N(c2ccccc2)Cc2nn(Cc3ccc(Cl)cc3)c(=O)n21` here?
A: -1%

Q: What about the Z score of the same compound?
A: 0.07

Q: With `C[C@H](NC(=O)NCC1(CS(C)(=O)=O)CC1)C(C)(C)C` as the compound, how does the “% Inhibition” value read?
A: -2%

Q: What about the Z score of the same compound?
A: 0.26

Q: With `Cc1cccc(C)c1OCc1cc(C(=O)N2CCN3CCC[C@H]3C2)no1` as the compound, how does the “% Inhibition” value read?
A: -14%

Q: And the Z score?
A: 1.25

Q: What does the source list for `CN(C)c1cc2c(cc1NC(=O)NCC[C@H]1CCCOC1)n(C)c(=O)n2C`?
A: % Inhibition: -4%; Z score: 0.59

Q: How did the “% Inhibition” value turn out when `Nc1nc2c(c(NCCN3CCNC3=O)n1)CCCC2` was run?
A: 2%

Q: And the Z score?
A: -0.28

Q: For `Cc1csc(C(=O)NCC[C@H](O)c2cccn2C)c1`, which “% Inhibition” value is on record?
A: 22%

Q: And the Z score?
A: -2.78

Q: `Cc1ccc(Cc2ccccc2C(=O)N2C[C@H]3CCN(C)[C@H]3C2)cc1F` was tested. Which “% Inhibition” value did it give?
A: -5%

Q: And the Z score?
A: 0.99

Q: `CC1(C)C[C@@H]1C(=O)Nc1cc(C(F)(F)F)n[nH]1` was tested. Which “% Inhibition” value did it give?
A: -1%

Q: What about the Z score of the same compound?
A: 0.07

Q: With `Cc1cnc(NCc2cccs2)nc1NCc1cccs1` as the compound, how does the “% Inhibition” value read?
A: 10%

Q: What about the Z score of the same compound?
A: -1.24
